Here are results for 91 molecules from publication PMC4336329 (PLoS ONE, 2015).

The campaign covered roughly 310,000 compounds. About 2,200 (0.71%) showed an effect of 50% or more. The effect is printed as a negative number. The list shows a part of the results.

This assay deals with human ether-à-go-go-related gene (hERG) potassium channel (human, UniProt Q12809). The assay is described as follows: primary screen, population patch clamp on CHO cells stably expressing hERG.
human ether-à-go-go-related gene (hERG) potassium channel, sequence (Q12809 whole entry, looked up): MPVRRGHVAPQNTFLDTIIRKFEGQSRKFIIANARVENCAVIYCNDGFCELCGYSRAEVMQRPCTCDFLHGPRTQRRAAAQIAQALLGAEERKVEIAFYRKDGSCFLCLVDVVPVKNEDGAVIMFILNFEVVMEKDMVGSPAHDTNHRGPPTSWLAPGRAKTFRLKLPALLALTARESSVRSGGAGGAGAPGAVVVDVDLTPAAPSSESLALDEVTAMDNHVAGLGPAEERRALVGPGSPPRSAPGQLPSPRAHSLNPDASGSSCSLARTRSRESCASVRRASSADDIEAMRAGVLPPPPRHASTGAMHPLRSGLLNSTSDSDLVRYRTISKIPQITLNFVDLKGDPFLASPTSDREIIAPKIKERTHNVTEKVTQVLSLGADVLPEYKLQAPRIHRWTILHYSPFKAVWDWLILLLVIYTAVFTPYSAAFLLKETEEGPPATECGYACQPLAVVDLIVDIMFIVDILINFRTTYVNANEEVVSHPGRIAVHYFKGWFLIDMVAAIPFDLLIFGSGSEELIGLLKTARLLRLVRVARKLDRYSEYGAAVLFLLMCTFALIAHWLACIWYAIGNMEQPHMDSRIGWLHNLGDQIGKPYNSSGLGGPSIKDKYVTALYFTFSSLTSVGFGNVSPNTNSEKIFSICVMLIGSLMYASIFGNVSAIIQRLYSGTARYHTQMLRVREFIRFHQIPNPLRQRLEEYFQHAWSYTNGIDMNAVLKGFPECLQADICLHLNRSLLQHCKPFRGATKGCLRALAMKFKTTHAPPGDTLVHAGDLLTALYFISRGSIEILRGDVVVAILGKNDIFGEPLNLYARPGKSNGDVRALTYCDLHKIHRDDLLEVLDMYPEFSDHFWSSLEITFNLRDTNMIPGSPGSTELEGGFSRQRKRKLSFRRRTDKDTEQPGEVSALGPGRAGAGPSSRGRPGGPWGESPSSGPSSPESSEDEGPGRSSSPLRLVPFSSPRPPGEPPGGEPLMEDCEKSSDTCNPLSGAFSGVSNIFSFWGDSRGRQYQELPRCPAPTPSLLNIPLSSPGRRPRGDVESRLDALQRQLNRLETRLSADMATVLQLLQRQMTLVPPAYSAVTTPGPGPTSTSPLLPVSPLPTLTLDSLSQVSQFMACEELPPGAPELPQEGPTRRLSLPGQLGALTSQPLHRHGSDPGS
As to `COc1cc(OC)c(CN2CCC(CO)(CCOc3ccccc3)CC2)c(OC)c1`, the “hERG current change (%, negative = inhibition) at 1uM” value is listed as -87.7%. On to `O=C1CCCN1C(=O)c1cncc(Br)c1`, for which the “hERG current change (%, negative = inhibition) at 1uM” value is -14.3%. The result for `OCCC1CN(Cc2ccccc2O)CCN1CCc1ccccc1` (stereo not shown) reads 0.469%; that for `Clc1ccc(/C=C/c2nc3ccccc3[nH]2)cc1`, -1.63%; that for `Cc1ccccc1OCC(=O)N/N=C/c1cn(C)c2ccccc12`, 10.3%. For `COc1ccccc1NC(=O)N(Cc1ccco1)Cc1cc2ccc(C)c(C)c2[nH]c1=O`, the “hERG current change (%, negative = inhibition) at 1uM” value came to 11.4%. The result for `CN(CC(=O)Nc1ccc(Cl)cc1)C(=O)Cc1c(F)cccc1Cl` reads 13.6%. Consider `Cn1ncc([N+](=O)[O-])c1C(=O)Nc1ccc(C2CCCCC2)cc1`, for which the “hERG current change (%, negative = inhibition) at 1uM” value came out at 13.7%. For `O=C(NCc1ccco1)C(=O)c1cn(CC(=O)N2CCCCCC2)c2ccccc12`, the “hERG current change (%, negative = inhibition) at 1uM” value was found to be 7.29%. The figure for `O=C(NC(=S)N(CCO)Cc1ccccc1)c1ccc(S(=O)(=O)N2CCCC2)cc1` is 11.6%. As to `O=C(NCc1cnn(-c2ccc(F)cc2)c1)C1CCC(=O)N(C2CC2)C1` (stereo not shown), the “hERG current change (%, negative = inhibition) at 1uM” value turned out to be 7.86%. The result for `C/C(=N\Nc1ccccn1)c1ccc(OC(F)F)cc1` reads -39.1%; that for `COc1ccc(CCNC(=O)CSc2ccc(-c3ccccc3)nn2)cc1OC`, 10.6%. The result for `COc1ccc(NC(C)=O)cc1CP(=O)(c1ccccc1)c1ccccc1` reads 15.6%; that for `CS(=O)(=O)N(Cc1ccccc1)c1ccccc1C(=O)Nc1ccccc1C(=O)NCc1ccco1`, -1.7%. The figure for `O=C(NCCCN1CCCC1)c1cccc(N2CCCC2=O)c1` is 12.3%; for `CC(=O)NC(NC(=S)Nc1ccc(N=Nc2ccccc2)cc1)C(Cl)(Cl)Cl` (stereo not shown) it is 15.4%.

As for `Clc1ccc(-c2cnc3n2CCC3)cc1`, the “hERG current change (%, negative = inhibition) at 1uM” value was -5.37%.

Regarding `O=C(O)c1c(N2CCCCC2)ccc([N+](=O)[O-])c1N1CCCCC1`, the “hERG current change (%, negative = inhibition) at 1uM” value was 13.3%.

Consider `COc1ccc(C2(C(=O)Nc3nncs3)CCCC2)cc1`, for which the “hERG current change (%, negative = inhibition) at 1uM” value is listed as -10%. The result for `CSc1ccc(CNCCN2CCOCC2)cc1.Cl` reads 7.48%; that for `COc1ccc(OC)c(NC(=O)CSc2nc3nc(C)cc(C)n3n2)c1`, 3.13%. Consider `CSc1nncc(=O)[nH]1`, for which the “hERG current change (%, negative = inhibition) at 1uM” value was -2.03%. Consider `COc1cccc(CNc2cccc(C(F)(F)F)c2)c1O`, for which the “hERG current change (%, negative = inhibition) at 1uM” value is 9.99%. Turning to `Cc1nc2ccc(S(=O)(=O)NCC(=O)N3CCC(N4CCCCC4)CC3)cc2s1`, the “hERG current change (%, negative = inhibition) at 1uM” value was -16.4%.

Take `COC(=O)c1cccc(NC(=O)CCCOc2ccccc2)c1`: the “hERG current change (%, negative = inhibition) at 1uM” value came to 0.591%. The result for `S=C(NCC1CCCO1)n1nnc2ccccc21` (stereo not shown) reads 7.09%; that for `CC(=O)c1cccc(NC(=S)NC(=O)c2ccc(C)cc2)c1`, 8.71%; that for `COc1ccc(N2CCC(CNC(=S)Nc3cc(C)cc(C)c3)C2)cc1` (stereo not shown), 3.85%. The figure for `CCNC(=O)N1C(CC(=O)OCC)C(=O)NC2CCCCC21` (stereo not shown) is 6.84%; for `CCn1c(NCc2ccccn2)nc2c1c(=O)n(C)c(=O)n2C` it is -1.03%. The figure for `O=C1NC(=O)C(=O)N1` is 12%; for `Cc1cccc(NS(=O)(=O)c2cc3c4c(c2)C(C)C(=O)N4CCC3)c1` (stereo not shown) it is 11%; for `CN(CC(=O)NCc1cccs1)S(=O)(=O)c1cccc2cccnc12` it is 10.7%. For the molecule `COc1ccc(C2(CNC(=O)c3cccc([N+](=O)[O-])c3)CCCCC2)cc1OC`, the “hERG current change (%, negative = inhibition) at 1uM” value was -4.58%.

Turning to `C/C(=N\OC(=O)NC1CCCCC1)c1sc(-c2ccccc2)nc1C`, the “hERG current change (%, negative = inhibition) at 1uM” value is reported as 4.66%. For the molecule `NC(=O)Cc1nc(-c2ccccc2)cs1`, the “hERG current change (%, negative = inhibition) at 1uM” value is on record as 12%. The result for `Cc1ccc(C)c(OCc2nnc(N)s2)c1` reads 11.1%. As for `O=C1CCN(Cc2ccc([N+](=O)[O-])cc2)CCN1[C@H](CO)Cc1ccccc1`, the “hERG current change (%, negative = inhibition) at 1uM” value is -10.3%. The figure for `COc1ccc(NC(=O)CSc2nc(C3CC3)nc3ccccc23)cc1` is 9.34%; for `CN(C)S(=O)(=O)n1cnc([C@H]2c3c(ncn3Cc3ccccc3)C[C@H]3COC(=O)[C@@H]32)c1` it is 0.667%. The result for `CCCc1cc(=O)oc2cc(C)cc(OC(C)C(=O)N[C@@H](Cc3c[nH]c4ccccc34)C(=O)O)c12` (stereo partly shown) reads 9.44%; that for `CC(Sc1nn(-c2ccc(Cl)cc2)c(=S)s1)C(=O)NCC1CCCO1` (stereo not shown), -1.11%. The figure for `CCOc1cc(C(=O)OCC(=O)Nc2cc(C)on2)ccc1OCC(C)C` is 3.6%; for `Nc1ccc(C(=O)OCC(=O)Nc2cc([N+](=O)[O-])ccc2F)cc1` it is 0.969%; for `O=C1CCCN1CC(O)CS(=O)(=O)Cc1ccccc1Cl` (stereo not shown) it is 14.4%. Take `NC(=O)c1ccsc1NC(=O)CN1C(=O)C2CC=CCC2C1=O` (stereo not shown): the “hERG current change (%, negative = inhibition) at 1uM” value was determined as 10.3%. The figure for `CCCN(CCC)S(=O)(=O)c1ccc(C(=O)O)cc1` is -9.32%; for `COc1cc(-c2nc3c4ccccc4nc(=S)n3[nH]2)cc(OC)c1OC` it is 24.5%. The result for `COc1cc2oc3cc(C)oc(=O)c3c2cc1OC` reads 2.73%; that for `COc1ccc(OC)c(NC(=O)C2CCCN(S(=O)(=O)c3ccc(-n4cnnn4)cc3)C2)c1` (stereo not shown), 5.12%.

For the molecule `COc1ccc(CN(C)S(=O)(=O)c2nnc(NC(=O)c3cccc(C)c3)s2)cc1OC`, the “hERG current change (%, negative = inhibition) at 1uM” value amounted to 14.1%. The figure for `O=C(CNC(=O)c1ccccc1)OCC(=O)N1c2ccccc2Sc2ccccc21` is 10.3%; for `O=C(CN1CCOCC1)Nc1ncccn1` it is 12.3%; for `COc1ccc(NC(=O)CN2CCC(Cc3ccccc3)CC2)cc1S(=O)(=O)N1CCOCC1` it is 3.78%. The result for `Cn1c(N)c(C(=O)Nc2ccc(-c3ccccc3)cc2)sc1=S` reads 12.2%.

With `CC(C)(C)c1ccc(C(=O)N2CCC(NC(=O)c3ccccc3)CC2)cc1`, the “hERG current change (%, negative = inhibition) at 1uM” value turned out to be 17%. As for `Cc1ccc(S(=O)(=O)NC(=O)NCC2CCN(S(=O)(=O)c3ccccc3)CC2)cc1`, the “hERG current change (%, negative = inhibition) at 1uM” value is 12.7%.

In the case of `C=CCn1c(SCC#N)nc2ccccc2c1=O`, the “hERG current change (%, negative = inhibition) at 1uM” value was determined as 13.1%. For the molecule `CCOC(=O)c1cnn(CCOC(=O)C2CC2)c1NC(=O)C1CC1`, the “hERG current change (%, negative = inhibition) at 1uM” value was 4.67%.

As for `COc1ccc2c(=O)c(-c3ccccc3)coc2c1`, the “hERG current change (%, negative = inhibition) at 1uM” value is on record as 13.9%. Take `COc1cccc(C(=O)Nc2c(C)n[nH]c2C)c1`: the “hERG current change (%, negative = inhibition) at 1uM” value is on record as 11.9%. The figure for `Cc1cccnc1NC(=O)COc1ccc2oc3c(c2c1)CCCC3` is 16.8%; for `CSc1nc(C)c(Cc2ccccc2)c(=O)[nH]1` it is 13.6%.

Consider `CCN(CC)C(=O)CC(c1ccc2c(c1)OCO2)c1c(O)cc(OC)cc1OC` (stereo not shown), for which the “hERG current change (%, negative = inhibition) at 1uM” value came out at 5.47%. The figure for `Cc1cc(C)c2c(=O)n(CC(=O)NCCCN3CCN(c4ccccc4F)CC3)sc2n1` is -15.3%; for `O=C(NCCCN1CCN(C2CCCCC2)CC1)Nc1ccccc1C(F)(F)F` it is -18.6%.

Take `O=C(Nc1cccc(-n2cnnn2)c1)c1cccs1`: the “hERG current change (%, negative = inhibition) at 1uM” value is on record as 18.5%. The figure for `COc1ccc(N2CCN(C(=O)c3sc4ncn(CC(=O)N5CCCCC5C)c(=O)c4c3C)CC2)cc1` (stereo not shown) is 1.19%. The result for `CCCNS(=O)(=O)c1ccc(Oc2ncc(C(F)(F)F)cc2Cl)cc1` reads 10.6%; that for `C=CCn1c(COc2ccccc2OC)nc2ccccc21`, 4.94%; that for `O=C(NCc1cccs1)C1CCN(c2nc3ccccc3o2)CC1`, -7.43%. The result for `COCCCNCCOCCOc1ccc(C)cc1Br` reads -3.87%. As for `Cc1ccc(C)c(C(C)NC(=O)c2ccccc2Br)c1` (stereo not shown), the “hERG current change (%, negative = inhibition) at 1uM” value was determined as 6.64%. The figure for `Cc1ccc(NC(=O)CSc2ccc(-c3ccccn3)nn2)cc1F` is 10.4%; for `O=C(COC(=O)c1cc(-c2cccs2)nn1-c1ccccc1)Nc1cccc([N+](=O)[O-])c1` it is -0.452%; for `Cc1c(C(=O)NCc2ccc3c(c2)OCO3)oc2ccc(S(=O)(=O)N3CCCCCC3)cc12` it is 9.62%.

Regarding `CCOc1ccccc1/C=N/NC(=O)CNC(=O)c1ccc(S(=O)(=O)N2CCOCC2)cc1`, the “hERG current change (%, negative = inhibition) at 1uM” value came out at 9.95%. The figure for `O=C(NCc1ccc2c(c1)OCO2)c1cc2c(s1)CSC2` is 13.6%; for `CCOC(=O)CNC(=O)C(CC(C)C)NC(=O)C1CCCCC1` (stereo not shown) it is 8.23%.

For the molecule `O=C(c1ccccc1)c1ccccc1C(=O)N1CCCC1`, the “hERG current change (%, negative = inhibition) at 1uM” value was -2.15%. Take `COc1ccc(N2CCN(c3nc4c(c(=O)n(C)c(=O)n4C)n3Cc3ccccc3)CC2)cc1`: the “hERG current change (%, negative = inhibition) at 1uM” value amounted to 3.75%. The figure for `COc1ccc(C)cc1N(C(=O)COc1cccc(F)c1)c1nc2ccccc2s1` is -13.3%. The figure for `O=C(c1ccco1)N1CCN(CC(O)Cn2c3ccccc3c3ccccc32)CC1` (stereo not shown) is -4.83%; for `Cc1c(C(=O)N2CCC2)oc2ccc(Br)cc12` it is -2.36%. The figure for `CCCc1nnc(SCc2ccc(C(=O)OC)o2)n1N` is 10.2%. As for `O=C(Cc1cccc(C(F)(F)F)c1)N1CCN(CC(=O)N2CCCC2)CC1`, the “hERG current change (%, negative = inhibition) at 1uM” value worked out at 12%. The result for `O=C(O)CCC1OC(=O)C(O)=C1c1ccccc1` (stereo not shown) reads 13.2%; that for `Cc1cccc(NC(=O)c2ccc(COc3ccccc3[N+](=O)[O-])o2)n1`, 3.01%. The figure for `Cc1cc(=O)nc2c3ccccc3n(CC(=O)NCCCN3CCCCC3C)n12` (stereo not shown) is 9.8%. For the molecule `CC(CCc1ccccc1)NC(=O)C1CCN(S(=O)(=O)N2CCCCC2)CC1` (stereo not shown), the “hERG current change (%, negative = inhibition) at 1uM” value was -3.31%.
